Test results published in PubChem BioAssay AID624417 (National Center for Advancing Translational Sciences (NCATS), 2012).
Among all 410,000 compounds or so, about 6,400 (1.6%) were called active. The shares of active, inactive and inconclusive entries below differ from those in the screen. Calls follow the shape of the dose curve; as a rule, active = well fitted inhibition curve with a large enough effect; inconclusive = small, poorly fitted or top-dose-only effect; inactive = no such curve, though single readings can be large or run the other way. Potencies of inconclusive entries are doubtful fits and often do not repeat.

Biological target: Glucagon-like peptide 1 receptor (Homo sapiens) (UniProt P43220)
Chain of UniProt P43220 (P43220 whole entry, looked up): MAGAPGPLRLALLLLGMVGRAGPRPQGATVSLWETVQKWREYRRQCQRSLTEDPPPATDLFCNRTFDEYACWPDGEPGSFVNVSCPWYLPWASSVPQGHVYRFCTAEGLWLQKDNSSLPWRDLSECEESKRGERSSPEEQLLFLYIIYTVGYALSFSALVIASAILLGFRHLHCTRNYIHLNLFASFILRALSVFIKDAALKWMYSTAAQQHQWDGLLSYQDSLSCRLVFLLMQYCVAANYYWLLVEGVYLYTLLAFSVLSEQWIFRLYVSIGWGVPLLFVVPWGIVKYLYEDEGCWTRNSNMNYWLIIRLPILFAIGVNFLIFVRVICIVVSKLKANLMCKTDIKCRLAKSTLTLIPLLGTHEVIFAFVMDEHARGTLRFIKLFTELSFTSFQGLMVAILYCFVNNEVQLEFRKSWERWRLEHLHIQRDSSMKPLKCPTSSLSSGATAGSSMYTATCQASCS
Experiment: qHTS of GLP-1 Receptor Inverse Agonists (Inhibition Mode); also: nearly all actives have a fitted effect of over 55% in size
Conditions: HEK293 GLP-1R CRE-luciferase, luminescence, 24 h, GLP-1R form is constitutively active; series mostly up to 38.3 µM
Summary of the method: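 Readout was luciferase luminescence, measured 12 min after detection reagent at room temperature. Beforehand, GLP-1R reporter HEK293 cells had sat 12 h, then received compounds for 24 hr at 37 deg C.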
Potency is read from the fitted curve at half-maximal effect; tags tell the direction and shape of the fitted curve.

Potency, inactive:
COc1ccc(CNC(=O)Nc2ccc(C)cc2C)cc1
O=C(CN1CCN(Cc2ccc(F)cc2)C1=O)NCc1cccs1
O=C(OCC1CCCO1)c1ccc2c(c1)N(Cc1ccccc1)C(=O)c1ccccc1S2(=O)=O (configuration not stated)
CC(=O)COc1ccc(-c2csnn2)cc1
Fc1ccc(-n2c(-c3ccc4ccccc4n3)n[nH]c2=S)cc1Cl
CSc1ncc(-c2ccc(Cl)cc2)[nH]1
COCCOC(=O)c1c(C)oc2ccc(OCc3cc(C(=O)OC)oc3C)cc12
Cc1cccn2c3c(c(=O)nc12)C(c1ccc(F)cc1)CC(=O)N3 (configuration not stated)
Cc1ccc2nc(-c3ccco3)c(CC3CCCCC3)n2c1
N/C(=N\OC(=O)CSc1ccccc1)c1ccc([N+](=O)[O-])cc1
CCSc1oc(-c2cccs2)nc1S(=O)(=O)c1ccc(Br)cc1
Cc1ccccc1C(=O)Nc1c(C(=O)Nc2cccc(F)c2)oc2ccccc12
Cn1c(N2CCN(S(=O)(=O)c3ccc(F)cc3)CC2)nc2ccccc21
COCCNC(=O)Cn1c(=O)c2cccn2c2ccc(F)cc21
O=C(Nc1nccs1)c1ccc([N+](=O)[O-])cc1Cl
Nc1[nH]c(N=NC(=O)c2ccc(Cl)cc2)c2ccccc12
C(=NN1CCCCCC1)c1ccccc1
COc1ccc(CCNC(=O)c2c(-c3ccccc3Cl)noc2C)cc1

Potency, inconclusive:
CCOC(=O)c1c(C)[nH]c(N=Nc2ccc(C)cc2)c1C 28.2 µM [inhibitor, single point]
O=C(CN1CCCCC1)NN(Cc1ccccc1)c1ccccc1 31.6 µM [inhibitor, single point]
Cc1nc2c3cc(F)ccc3n(CCN3CCCCC3)c2s1 6.31 µM [inhibitor, partial curve]
Cc1cccc(C(=O)OC(C)C(=O)N2CCc3ccccc3C2)c1C (configuration not stated) 11.2 µM [inhibitor, partial curve, poor fit]
CCOC(=O)C1(CCOc2ccccc2)CCN(Cc2ccc(OC)c(COC)c2)CC1 22.4 µM [inhibitor, single point]
Cc1ccc(NC(=O)c2nc(S(C)(=O)=O)ncc2N(Cc2ccco2)Cc2cccs2)cc1C 22.4 µM [inhibitor, single point]
O=C1CC(=C2c3ccccc3-c3ccccc32)C(=O)N1CCCCN1CCN(c2ccccc2)CC1 2.82 µM [inhibitor, full curve, poor fit]
CC/C(=N/NC(=O)c1ccccc1O)c1c(C)[nH]n(-c2ccccc2)c1=O 11.2 µM [inhibitor, partial curve, poor fit]
COc1ccccc1NC(=O)c1cc2c(C)nn(-c3ccccc3)c2s1 28.2 µM [inhibitor, single point]
COc1ccccc1C(=O)NNC(=O)c1cccc(O)c1 28.2 µM [inhibitor, single point]
O=C1C(Cl)=C(NCC2CCCO2)C(=O)N1C1CCCCC1 (configuration not stated) 10 µM [inhibitor, partial curve]
CCOC(=O)C1CCCN(C(=O)Cn2ncc3c4ccccc4n(Cc4ccccc4)c3c2=O)C1 (configuration not stated) 12.6 µM [inhibitor, single point]
Cc1ccc(C)c(N2CCN(S(=O)(=O)c3c(C)[nH]c(C)c3C(=O)N3CCCCC3)CC2)c1 20 µM [inhibitor, single point]
O=C(c1sc2cc(F)ccc2c1Cl)N1CCN(c2ccccc2)CC1 12.6 µM [inhibitor, single point]
O=c1c(Cl)c(N2CCN(c3ccccc3)CC2)cnn1C12CC3CC(CC(C3)C1)C2 1.58 µM [inhibitor, partial curve, poor fit]
O=C(C[C@H]1C/C=C\C[C@H](Cc2ccc(F)cc2)C(=O)O[C@@H](c2ccccc2)CNC1=O)N[C@H](CO)Cc1ccccc1 28.2 µM [inhibitor, single point]
CO/N=C/C(C#N)c1ncc(C(F)(F)F)cc1Cl (configuration not stated) 28.2 µM [inhibitor, single point]
Cc1ccc(C(=O)N2CCN(c3cccc(Cl)c3)CC2)cc1C 28.2 µM [inhibitor, single point]
COc1ccc(S(=O)(=O)NCC(c2ccc(C)cc2)N2CCN(C)CC2)cc1 (configuration not stated) 8.91 µM [inhibitor, partial curve]
CC1CCCCN1C(=S)Nc1ccc(OC(F)F)cc1 (configuration not stated) 11.2 µM [inhibitor, single point]
CC1CCc2ccccc2N1CC(=O)Nc1cccc(S(=O)(=O)N2CCCC2)c1 (configuration not stated) 12.6 µM [inhibitor, partial curve, poor fit]
CCN(Cc1ccncc1)Cc1c(O)ccc2ccccc12 11.2 µM [inhibitor, single point]
C/C(=N\NC(N)=S)c1ccccc1 22.4 µM [inhibitor, single point]
O=[N+]([O-])c1ccc2[nH]c3c(c2c1)CCCC3 7.94 µM [inhibitor, partial curve, poor fit]
CC(=O)c1cccc(NC(=O)c2cccc3c(-c4cccc(C(N)=O)c4)coc23)c1 2 µM [inhibitor, partial curve, poor fit]
Cc1ccc(NC(=O)CN2C(=O)NC3(CCc4ccccc43)C2=O)cc1S(=O)(=O)N1CCCCC1 (configuration not stated) 28.2 µM [inhibitor, single point]
CCOC(=O)c1c2c(n(C)c1C)C(=O)C(=O)c1ccc(Br)cc1-2 3.16 µM [inhibitor, partial curve, poor fit]
Cc1ccc(NS(=O)(=O)c2cccc(C(=O)NC3CCN(Cc4ccccc4)CC3)c2)cc1 11.2 µM [inhibitor, partial curve, poor fit]
COc1ccccc1CC(=O)NNC(=O)c1ccc(C(C)(C)C)cc1 28.2 µM [inhibitor, single point]
Cc1ccc(NC(=O)NNC(=O)Cn2nc(-c3ccccc3)c(-c3ccccc3)c(C#N)c2=O)cc1 8.91 µM [inhibitor, partial curve, poor fit]
Cc1cc(NC(=O)CCN2CCCCC2)ccc1Br 14.1 µM [inhibitor, single point]
O=C(NCc1ccc(OC(F)(F)F)cc1)c1ccc2c(c1)S(=O)(=O)c1ccccc1C2=O 28.2 µM [inhibitor, single point]
CC(C)(C)C(=O)Nc1nc(C2CCCN2S(=O)(=O)c2ccc(Cl)cc2)cs1 (configuration not stated) 20 µM [inhibitor, single point]
CCN(CC)S(=O)(=O)c1cccc(NC(=O)CC2CCCC2)c1 11.2 µM [inhibitor, single point]
Cc1ccc(Nc2nc(N)nc(CN3CCN(Cc4ccc5c(c4)OCO5)CC3)n2)cc1C 11.2 µM [inhibitor, partial curve, poor fit]
C[C@H](NC(=O)c1nc[nH]c1C(=O)N[C@@H](CCCCNC(=O)OC(C)(C)C)C(=O)OC(C)(C)C)c1ccccc1 11.2 µM [inhibitor, single point]
CC1CC2=C(CC1/C=N/NC(N)=S)C(C)(C)CCC2 (configuration not stated) 2.82 µM [inhibitor, full curve, poor fit]
CCOC(=O)c1c(NC(=S)N2CCN(C)CC2)sc2c1CCN(C(=O)OCC)C2 14.1 µM [inhibitor, single point]
CCOCCOc1cccc(C(=O)NC(C)c2ccc3ccccc3c2)c1 (configuration not stated) 8.91 µM [inhibitor, partial curve, poor fit]
O=C(NCC(=O)N1CC=C(c2ccccc2)CC1)c1ccccc1Br 15.8 µM [inhibitor, partial curve, poor fit]
Cc1c(C(=O)NCCSCc2c(F)cccc2Cl)cnn1-c1ccc(F)cc1 1.26 µM [inhibitor, full curve, poor fit]
Cc1ccc(S[C@@H](CCN2CC[C@H](NC(=O)OCc3ccccc3)CCC2=O)c2ccccc2)cc1 8.91 µM [inhibitor, partial curve, poor fit]
CCc1ccccc1NC(=O)CSc1nnc(-c2ccccc2)c(-c2ccccc2)n1 12.6 µM [inhibitor, single point]
Cc1ccc(NC(=O)c2cc(Cl)ccc2[N+](=O)[O-])cc1C 7.94 µM [inhibitor, partial curve, poor fit]
Fc1ccc(NC(=S)N/N=C/c2ccc(F)c(F)c2)cc1 3.98 µM [inhibitor, partial curve]
O=C(CN1CCc2ccccc2C1)Nc1ccccc1F 12.6 µM [inhibitor, partial curve]
Cc1onc(-c2c(F)cccc2Cl)c1C(=O)Nc1cccc(S(=O)(=O)NCc2ccco2)c1 11.2 µM [inhibitor, partial curve, poor fit]

Potency, active:
COc1ccccc1NC(=O)c1c(Nc2ccccc2C)sc(C(=O)Nc2cccc(Cl)c2)c1N 4.47 µM
CC1(C)Cc2c(cnn2-c2ccccc2)-c2c1c1ccccc1n2CC(O)CBr (configuration not stated) 7.08 µM
